Assay results: the supplement of paper PMC8728848
The other results are listed elsewhere or left out.

Columns and labels:
Test in all cases: glycan array binding signal (z-score within array); higher = stronger binding
Conditions in all cases: glycan notation: IUPAC condensed, linker removed
[1] = molecular target: Gal(b1-4)GlcNAc(b1-3)Gal(b1-4)GlcNAc(b1-3)[Gal(b1-4)GlcNAc(b1-3)Gal(b1-4)GlcNAc(b1-6)]GalNAc
How it was run: (§1)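 The binding signal is a Z-score computed within each array. Data were drawn from 3228 arrays in the Consortium for Functional Glycomics database, restricted to those with a known protein sequence. Scores were averaged over arrays of the same protein sequence at different concentrations or buffers, and over linkers, and negative values can be taken as non-binding.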

[2] = molecular target: Gal(b1-4)GlcNAc(b1-3)Gal(b1-4)GlcNAc(b1-6)[Gal(b1-3)]GalNAc
How it was run: as §1

[3] = molecular target: Gal(b1-4)GlcNAc(b1-3)Gal(b1-4)[Fuc(a1-3)]GlcNAc(b1-3)Gal(b1-4)[Fuc(a1-3)]GlcNAc
How it was run: as §1

[4] = molecular target: Gal(b1-4)GlcNAc(b1-3)GalNAc
How it was run: as §1

[5] = molecular target: Gal(b1-4)GlcNAc(b1-3)[Fuc(a1-3)GlcNAc(b1-6)]Gal(b1-4)Glc
How it was run: as §1

[6] = molecular target: Gal(b1-4)GlcNAc(b1-3)[Gal(b1-4)GlcNAc(b1-6)]Gal(b1-4)GlcNAc
How it was run: as §1

[7] = molecular target: Gal(b1-4)GlcNAc(b1-3)[GlcNAc(b1-6)]Gal(b1-4)GlcNAc
How it was run: as §1

[8] = molecular target: Gal(b1-4)GlcNAc(b1-6)Gal(b1-4)GlcNAc
How it was run: as §1

[9] = molecular target: Gal(b1-4)GlcNAc(b1-6)GalNAc
How it was run: as §1

[10] = molecular target: Gal(b1-4)GlcNAc(b1-6)[Gal(b1-3)]GalNAc
How it was run: as §1

[11] = molecular target: Gal(b1-4)GlcNAc(b1-6)[Gal(b1-4)GlcNAc(b1-3)]GalNAc
How it was run: as §1

Gal(b1-4)GlcNAc6P = molecular target: Gal(b1-4)GlcNAc6P
How it was run: as §1

Gal(b1-6)Gal = molecular target: Gal(b1-6)Gal
How it was run: as §1

Gal3S(b1-3)GalNAc = molecular target: Gal3S(b1-3)GalNAc
How it was run: as §1

Gal3S(b1-3)GlcNAc = molecular target: Gal3S(b1-3)GlcNAc
How it was run: as §1

[12] = molecular target: Gal3S(b1-3)[Fuc(a1-4)]GlcNAc
How it was run: as §1

Gal3S(b1-4)Glc = molecular target: Gal3S(b1-4)Glc
How it was run: as §1

Gal3S(b1-4)Glc6S = molecular target: Gal3S(b1-4)Glc6S
How it was run: as §1

Gal3S(b1-4)GlcNAc = molecular target: Gal3S(b1-4)GlcNAc
How it was run: as §1

[13] = molecular target: Gal3S(b1-4)[Fuc(a1-3)]Glc6S
How it was run: as §1

[14] = molecular target: Gal3S(b1-4)[Fuc(a1-3)]GlcNAc
How it was run: as §1

[15] = molecular target: Gal3S(b1-4)[Fuc(a1-3)]GlcNAc6S
How it was run: as §1

Gal3S4S(b1-4)GlcNAc = molecular target: Gal3S4S(b1-4)GlcNAc
How it was run: as §1

Gal3S6S(b1-4)GlcNAc = molecular target: Gal3S6S(b1-4)GlcNAc
How it was run: as §1

Gal3S6S(b1-4)GlcNAc6S = molecular target: Gal3S6S(b1-4)GlcNAc6S
How it was run: as §1

Gal4S(b1-4)GlcNAc = molecular target: Gal4S(b1-4)GlcNAc
How it was run: as §1

Gal4S6S(b1-4)GlcNAc = molecular target: Gal4S6S(b1-4)GlcNAc
How it was run: as §1

Gal6P(b1-4)GlcNAc = molecular target: Gal6P(b1-4)GlcNAc
How it was run: as §1

Gal6S(b1-3)GlcNAc = molecular target: Gal6S(b1-3)GlcNAc
How it was run: as §1

Gal6S(b1-3)GlcNAc6S = molecular target: Gal6S(b1-3)GlcNAc6S
How it was run: as §1

Gal6S(b1-4)Glc = molecular target: Gal6S(b1-4)Glc
How it was run: as §1

Gal6S(b1-4)Glc6S = molecular target: Gal6S(b1-4)Glc6S
How it was run: as §1

Gal6S(b1-4)GlcNAc = molecular target: Gal6S(b1-4)GlcNAc
How it was run: as §1

Gal6S(b1-4)GlcNAc6S = molecular target: Gal6S(b1-4)GlcNAc6S
How it was run: as §1

GalNAc(a1-3)Gal = molecular target: GalNAc(a1-3)Gal
How it was run: as §1

GalNAc(a1-3)GalNAc = molecular target: GalNAc(a1-3)GalNAc
How it was run: as §1

[16] = molecular target: GalNAc(a1-3)GalNAc(b1-3)Gal(a1-4)Gal(b1-4)Glc
How it was run: as §1

B1: Als3-41 (Candida albicans) (protein)
chain: KTITGVFNSFNSLTWSNAATYNYKGPGTPTWNAVLGWSLDGTSASPGDTFTLNMPCVFKFTTSQTSVDLTAHGVKYATCQFQAGEEFMTFSTLTCTVSNTLTPSIKALGTVTLPLAFNVGGTGSSVDLEDSKCFTAGTNTVTFNDGGKKISINVDFERSNVDPKGYLTDSRVIPSLNKVSTLFVAPQCANGYTSGTMGFANTYGDVQIDCSNIHVGITKGLNDWNYPVSSESFSYTKTCSSNGIFITYKNVPAGYRPFVDAYISATDVNSYTLSYANEYTCAGGYWQRAPFTLRWTGYRNSDAGSNGIVIVATTRTVTDSTTAVTTLPFDPNRDKTKTIEILKPIPTTTITTSYVGVTTSYLTKTAPIGETATVIVD
glycan array binding signal (z-score) [1]: 0.992
glycan array binding signal (z-score) [2]: 1.05
glycan array binding signal (z-score) [3]: -0.306
glycan array binding signal (z-score) [4]: -0.261
glycan array binding signal (z-score) [5]: -0.31
glycan array binding signal (z-score) [6]: -0.137
glycan array binding signal (z-score) [7]: -0.263
glycan array binding signal (z-score) [8]: -0.092
glycan array binding signal (z-score) [9]: -0.186
glycan array binding signal (z-score) [10]: -0.165
glycan array binding signal (z-score) [11]: -0.259
glycan array binding signal (z-score) (Gal(b1-4)GlcNAc6P): 0.408
glycan array binding signal (z-score) (Gal(b1-6)Gal): -0.221
glycan array binding signal (z-score) (Gal3S(b1-3)GalNAc): -0.287
glycan array binding signal (z-score) (Gal3S(b1-3)GlcNAc): -0.197
glycan array binding signal (z-score) [12]: -0.139
glycan array binding signal (z-score) (Gal3S(b1-4)Glc): -0.112
glycan array binding signal (z-score) (Gal3S(b1-4)Glc6S): -0.151
glycan array binding signal (z-score) (Gal3S(b1-4)GlcNAc): -0.21
glycan array binding signal (z-score) [13]: 0.781
glycan array binding signal (z-score) [14]: -0.184
glycan array binding signal (z-score) [15]: -0.263
glycan array binding signal (z-score) (Gal3S4S(b1-4)GlcNAc): 0.028
glycan array binding signal (z-score) (Gal3S6S(b1-4)GlcNAc): -0.266
glycan array binding signal (z-score) (Gal3S6S(b1-4)GlcNAc6S): 0.032
glycan array binding signal (z-score) (Gal4S(b1-4)GlcNAc): -0.256
glycan array binding signal (z-score) (Gal4S6S(b1-4)GlcNAc): -0.211
glycan array binding signal (z-score) (Gal6P(b1-4)GlcNAc): -0.262
glycan array binding signal (z-score) (Gal6S(b1-3)GlcNAc): 0.164
glycan array binding signal (z-score) (Gal6S(b1-3)GlcNAc6S): -0.02
glycan array binding signal (z-score) (Gal6S(b1-4)Glc): -0.239
glycan array binding signal (z-score) (Gal6S(b1-4)Glc6S): 0.012
glycan array binding signal (z-score) (Gal6S(b1-4)GlcNAc): -0.24
glycan array binding signal (z-score) (Gal6S(b1-4)GlcNAc6S): 0.056
glycan array binding signal (z-score) (GalNAc(a1-3)Gal): 0.029
glycan array binding signal (z-score) (GalNAc(a1-3)GalNAc): -0.204
glycan array binding signal (z-score) [16]: -0.24
